Over roughly 81,000 sequences, “one-hybrid fitness for binding parS DNA” has its median near -0.17; the highest 2% begin near 0.51. The list shows a part of the results.
B1: Caulobacter ParB omega fusion; a variant is named by its letters at X, in order, B8GW30 (parent)
chain: MESVVVGEPGMSEGRRGLGRGLSALLGEVDAAPAQAPGEQLGGSREAPIEILQRNPDQPRRTFREEDLEDLSNSIREKGVLQPILVRPSPDTAGEYQIVAGERAWRAAQRAGLKTVPIMVRELDDLAVLEIGIIENVQRADLNVLEEALSYKVLMEKFERTQENIAQTIGKSXSHVANXMRLLXLPDEVQSYLVSGELTAXHARAIAAAADPVALAKQIIEGGLSVRETEALARKAPNLSAGKSKGGRPPRVKDTDTQALESDLSSVLGLDVSIDHRGSTGTLTITYATLEQLDDLCNRLTRGI

Variants of: B1
Experiment: one-hybrid fitness for binding parS DNA (scaled: cognate 1, non-cognate 0); higher = stronger binding
Settings: with parS DNA site
In short: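 Pre- and post-selection plasmids were Illumina-sequenced, three replicate libraries were pooled, and any variant with under 10 reads was removed. The libraries were Caulobacter ParB with four specificity codons randomised, selected in E. coli USO through a HIS3 reporter whose site is 19 bp from the promoter. Cells grew 48 hours at 37°C on M9 without histidine, with 0.1 mM IPTG and 5 mM 3-AT. Fitness is the log change in variant-to-wild-type read ratio, rescaled against cognate and non-cognate.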

Variant | one-hybrid fitness for binding parS DNA
RAAV | ≤ 0.2
TLAM | ≤ 0.2
NKKS | ≤ 0.2
VCQR | ≤ 0.2
MDPT | ≤ 0.2
LIKT | ≤ 0.2
GVPS | ≤ 0.2
RTCW | 0.215
PTKT | ≤ 0.2
VKYT | ≤ 0.2
RAEC | 0.807
YATV | ≤ 0.2
CPSR | ≤ 0.2
TNWC | ≤ 0.2
RAQE | ≤ 0.2
YNKI | ≤ 0.2
ITAP | ≤ 0.2
NSWC | ≤ 0.2
CTWG | 0.274
TCAS | ≤ 0.2
MAFC | ≤ 0.2
ILKA | ≤ 0.2
KTLC | ≤ 0.2
AYDC | ≤ 0.2
TDFG | ≤ 0.2
QVHV | ≤ 0.2

Variant | one-hybrid fitness for binding parS DNA
PATN | ≤ 0.2
QDKY | ≤ 0.2
PWKY | ≤ 0.2
PARI | ≤ 0.2
KSHW | ≤ 0.2
QSFR | ≤ 0.2
CYWG | ≤ 0.2
AFIA | ≤ 0.2
CVSP | ≤ 0.2
LQML | ≤ 0.2
FLTE | ≤ 0.2
LSCG | ≤ 0.2
RLWI | ≤ 0.2
SQRM | ≤ 0.2
TNMW | ≤ 0.2
KEAR | ≤ 0.2
PFQQ | ≤ 0.2
TEAW | ≤ 0.2
TCTM | ≤ 0.2
VGYV | ≤ 0.2
LGPP | ≤ 0.2
SFLG | ≤ 0.2
EVSY | ≤ 0.2
QYNH | ≤ 0.2
WVLV | ≤ 0.2
TGPT | ≤ 0.2

Variant | one-hybrid fitness for binding parS DNA
RGLE | ≤ 0.2
TERS | ≤ 0.2
YGPT | ≤ 0.2
TTSA | ≤ 0.2
WQHC | ≤ 0.2
PQLK | ≤ 0.2
SLKI | ≤ 0.2
LLAQ | ≤ 0.2
NVFS | ≤ 0.2
MMDG | ≤ 0.2
DACF | ≤ 0.2
RTTY | 0.477
HIPP | ≤ 0.2
QWLI | ≤ 0.2
VTHT | ≤ 0.2
AQSK | ≤ 0.2
RNHK | ≤ 0.2
TMTS | ≤ 0.2
CPRS | ≤ 0.2
HCCT | ≤ 0.2
RTGP | ≤ 0.2
CANA | ≤ 0.2
EKST | ≤ 0.2
RIKF | 0.303
IPTE | ≤ 0.2
LGGY | ≤ 0.2

Variant | one-hybrid fitness for binding parS DNA
SAPE | ≤ 0.2
ARHC | ≤ 0.2
DISS | ≤ 0.2
ISAC | ≤ 0.2
VHHR | ≤ 0.2
RASF | 0.234
SHNV | ≤ 0.2
LACG | ≤ 0.2
GKVS | ≤ 0.2
LTLG | ≤ 0.2
DNPV | ≤ 0.2
RFNA | 0.57
NPQD | ≤ 0.2
PNWC | ≤ 0.2
RWDG | 0.616
EDWG | ≤ 0.2
PSAG | ≤ 0.2
RRNP | ≤ 0.2
QACA | ≤ 0.2
ATRV | ≤ 0.2
RCQS | 0.986
RIDC | 0.866
KSVS | ≤ 0.2
CHKP | ≤ 0.2
MANT | ≤ 0.2
TRTT | ≤ 0.2

Variant | one-hybrid fitness for binding parS DNA
EPYL | ≤ 0.2
WYSC | ≤ 0.2
VKRY | ≤ 0.2
QLDR | ≤ 0.2
HVLR | ≤ 0.2
HRVH | ≤ 0.2
FAFR | ≤ 0.2
GVDE | ≤ 0.2
PLVW | ≤ 0.2
NCEG | ≤ 0.2
GYHR | ≤ 0.2
LSHC | ≤ 0.2
WQYG | ≤ 0.2
EKAR | ≤ 0.2
SSYL | ≤ 0.2
YYIF | ≤ 0.2
ASHG | ≤ 0.2
QSMR | ≤ 0.2
PFQG | ≤ 0.2
RPKR | ≤ 0.2
EMEV | ≤ 0.2
QIQN | ≤ 0.2
RPMV | ≤ 0.2
TMSR | ≤ 0.2
CEPN | ≤ 0.2
CYWR | ≤ 0.2

Variant | one-hybrid fitness for binding parS DNA
YYIT | ≤ 0.2
TPRQ | ≤ 0.2
IIGT | ≤ 0.2
MYSP | ≤ 0.2
ADST | ≤ 0.2
YHGY | ≤ 0.2
CTLI | ≤ 0.2
VIRG | ≤ 0.2
PKFR | ≤ 0.2
SLKF | ≤ 0.2
TVPW | ≤ 0.2
VTLL | ≤ 0.2
GWST | ≤ 0.2
VGCL | ≤ 0.2
MMTD | ≤ 0.2
KAWV | ≤ 0.2
APLC | ≤ 0.2
RQRH | 0.249
YSLS | ≤ 0.2
AMKP | ≤ 0.2
DMGC | ≤ 0.2
YRNF | ≤ 0.2
ALDW | ≤ 0.2

Reference: a collection of fitness landscapes (doi:10.1016/j.celrep.2020.107928)
